According to PubChem BioAssay AID488969 (Vanderbilt High Throughput Screening Facility, 2010):
Over roughly 110,000 compounds, “z-score” has its median near -0.1; the highest 2% begin near 2. This is one part of the list. Activity calls are given as the source filed them.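 Rule for the calls: active = z-score in the third read window above 3 or below -3; inactive = the rest.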

These compounds were tested against Metabotropic glutamate receptor 8 (Rattus norvegicus) (UniProt P70579) (assay: rat mGluR8 modulators via GIRK flux, primary screen, cell-based, thallium flux, HTS (AID 488969)). Conditions: HEK293 rat mGluR8, GIRK (G protein-gated inwardly rectifying potassium channel) thallium flux, FluoZin2; at 10 µM; stronger effect = higher value; submaximal glutamate (EC20) added with thallium.
Chain of UniProt P70579 (P70579 whole entry, looked up): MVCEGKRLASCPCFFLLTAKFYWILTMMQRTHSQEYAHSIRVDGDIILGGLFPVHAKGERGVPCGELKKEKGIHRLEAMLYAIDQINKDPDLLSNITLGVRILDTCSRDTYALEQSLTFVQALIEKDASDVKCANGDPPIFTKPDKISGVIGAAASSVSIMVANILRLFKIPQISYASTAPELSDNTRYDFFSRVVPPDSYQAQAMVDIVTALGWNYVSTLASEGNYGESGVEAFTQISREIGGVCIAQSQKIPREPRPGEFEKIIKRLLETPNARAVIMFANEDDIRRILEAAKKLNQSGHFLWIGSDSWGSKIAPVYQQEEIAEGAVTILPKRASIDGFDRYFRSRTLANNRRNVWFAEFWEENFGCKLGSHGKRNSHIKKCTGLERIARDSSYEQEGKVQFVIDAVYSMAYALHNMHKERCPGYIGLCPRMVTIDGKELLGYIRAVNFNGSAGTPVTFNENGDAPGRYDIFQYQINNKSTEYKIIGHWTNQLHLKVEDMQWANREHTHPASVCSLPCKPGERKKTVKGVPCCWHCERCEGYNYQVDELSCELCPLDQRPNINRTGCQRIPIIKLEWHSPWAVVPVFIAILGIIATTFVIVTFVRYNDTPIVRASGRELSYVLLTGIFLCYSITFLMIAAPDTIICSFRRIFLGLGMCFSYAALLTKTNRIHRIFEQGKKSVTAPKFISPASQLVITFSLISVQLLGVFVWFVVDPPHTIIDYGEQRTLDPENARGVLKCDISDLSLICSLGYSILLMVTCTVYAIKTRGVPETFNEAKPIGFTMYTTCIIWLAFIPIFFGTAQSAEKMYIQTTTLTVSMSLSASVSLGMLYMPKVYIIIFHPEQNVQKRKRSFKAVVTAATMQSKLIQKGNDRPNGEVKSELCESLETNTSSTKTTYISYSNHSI

Point of comparison: COc1ccc(NS(=O)(=O)c2ccc3c(c2)n(C)c(=O)n3C)cc1, z-score 0.174. Against it:
- COc1ccccc1/C=C(/C(=O)OCC(=O)NCc1ccccc1)c1ccccc1 — lower, -0.384
- COc1ccc(/C=C2\SC(=O)N(CCC(=O)Nc3ccccc3)C2=O)cc1OC — lower, -0.151
- CCOC(=O)c1cn(-c2ccc(F)c(F)c2F)c2c(F)c(F)c(F)cc2c1=O — lower, -0.165
- Cc1ccc(CSc2nc3ncccc3[nH]2)cc1 — higher, 1.17
- Cc1cccc(NC(=S)NC2CCCCCC2)c1C — lower, -0.188
- COc1ccc(OC)c(/C=C/C(=O)N(C)CC(=O)Nc2cc(C)ccc2C)c1 — lower, -0.349
- CC(C)NC(=S)N/N=C1\CCCCC1C1CCCCC1 (centres undefined) — higher, 0.726
- CCOC(=O)c1[nH]c2cc(OC)c(OC)cc2c1NC(=O)CN1CCN(c2ccc(OC)cc2)C(C)C1 (centres undefined) — lower, -0.425
- O=C(NNc1cccc(Cl)c1)c1cccnc1Cl — lower, -0.279
- CCOC(=O)C1CCCN(c2c(NCCCN3CCCC(C)C3)c(=O)c2=O)C1 (centres undefined) — higher, 0.408
- CCc1ccc(C(=O)COC(=O)c2cc([N+](=O)[O-])ccc2NCCO)cc1 — lower, 0.0448
- C=CCNC(=O)c1ccccc1NC(=O)c1ccc(Cl)c(S(=O)(=O)Nc2cc(C)ccc2C)c1 — lower, -0.242
- CN1CSC2=C(C#N)C(c3cccc(OCc4ccccc4)c3)CC(=O)N2C1 (centres undefined) — lower, 0.117
- CC(=O)Nc1ccc(NC2=Nc3ccccc3N3C2=Nc2c(c(C)nn2-c2ccccc2)C3c2ccccc2)cc1 (centres undefined) — lower, -0.238
- CC(C)C(=O)N1CCN(CCN=CC2=C(O)CC(c3ccco3)CC2=O)CC1 (centres undefined) — higher, 0.416
- CCOC(=O)c1sc(C)c2c1NC(c1ccc(N(C)C)cc1)NC2=O (centres undefined) — lower, -0.041
- Cc1ccc(OCc2nnc(SCC(=O)c3cccc([N+](=O)[O-])c3)n2C)cc1 — lower, -0.0978
- CCOC(=O)C1CCN(C(=O)CCn2c(=O)[nH]c3ccsc3c2=O)CC1 — lower, -0.469
- CC(C)CC(=O)NC(=S)Nc1ccc(S(=O)(=O)N2CCN(C)CC2)cc1 — lower, -0.0864
- Cc1cc(C)c(S(=O)(=O)c2ccccc2C)c(SCC(C)C)n1 — lower, 0.132
- CCOC(=O)c1ccc(-n2c(C)nc3c(cnn3-c3ccccc3C)c2=O)cc1 — lower, -0.454
- O=C(Nc1cccc2cccnc12)c1cccc2ccccc12 — higher, 0.392
- COc1cc(C)c(Cl)cc1S(=O)(=O)NCc1ccncc1 — lower, -0.0504
- O=CN1CCN(C(=O)c2ccccc2Cl)CC1 — lower, -0.278
- O=c1oc2ccccc2n1CCc1ccccc1 — lower, -0.159
- Cc1ccc(CSCCNC(=O)c2ccc(N(C)S(=O)(=O)c3ccccc3)cc2)cc1 — lower, -0.189
- Cc1ccc(SCC(=O)NC(=O)c2ccc(S(=O)(=O)N(C)C)cc2)cc1C — lower, -0.181
- CN(C)S(=O)(=O)c1ccc(C(=O)OCn2nnc3ccccc3c2=O)cc1 — lower, -0.599
- CC(C)=C1SC(N2CCN(c3ccc(C)cc3)CC2)=NC1=O — lower, -0.391
- COc1ccc(-n2c(C)nc3c(cnn3-c3ccc(C)c(C)c3)c2=O)cc1 — higher, 0.55
- O=C(Nc1ccc(-c2cc3ccccc3oc2=O)c(Cl)c1)c1cccnc1 — lower, -0.334
- COc1cc(NC(=O)c2cc(OC)c(OC)c(OC)c2)c(OC)cc1NC(=O)CN1CCCCC1 — lower, -2.33
- CCOc1ccccc1C1N(c2ccc(F)cc2)C(=O)C2CCCN21 (centres undefined) — higher, 0.236
- CC(=O)Oc1c(C)c(=O)n(C)c2ccccc12 — lower, -0.613
- CCc1ccc(NC(=O)C2CC(=O)N=C(N)S2)cc1 (centres undefined) — lower, 0.0844
- CCN(CC)S(=O)(=O)c1cccc(C(=O)Nc2cc(C)cc(C)c2)c1 — lower, 0.0622
- Cc1nn2c(COc3ccc(NC(=O)c4ccccc4Cl)cc3)nnc2c2ccccc12 — higher, 0.246
- Cc1cc(Cl)ccc1NC(=S)N(CCCN1CCOCC1)Cc1cccs1 — lower, -0.367
- Cc1cc(C)cc(Oc2ncnc3c2ncn3Cc2c(Cl)cccc2Cl)c1 — lower, -0.184
- Cc1cccc(-n2c(CCN3C(=O)c4ccccc4C3=O)nc3ccccc3c2=O)n1 — lower, -0.233
- COC(=O)c1c(C)oc2ccc(NS(=O)(=O)c3cccs3)cc12 — lower, -0.587
- OC(Cn1cncn1)c1ccc(Cl)cc1 (centres undefined) — higher, 0.554
- CC(=O)c1ccc(N2CCN(C(=O)c3ccc(OCc4c(C)noc4C)cc3)CC2)cc1 — higher, 0.463
- Cc1cccn2c(=O)c3cc(C#N)c(=N)n(CCN4CCOCC4)c3nc12 — lower, -0.18
- CCc1ccc(OC)c(S(=O)(=O)NCCOc2ccccc2)c1 — lower, -0.254
- CCOc1ccc(/C=N/NC(=O)c2c(-c3ccccc3)noc2C)cc1 — lower, -0.181
- Clc1ccc(C(c2nnnn2C2CCCCC2)N(Cc2cccnc2)Cc2ccco2)cc1 (centres undefined) — lower, -0.77
- COc1ccc(-c2cc3nc[nH]c(=O)c3s2)cc1 — higher, 0.281
- N#C/C(=C\c1ccc(Cl)s1)C(=O)N1CCN(c2ccccc2)CC1 — lower, -0.244
- O=C(N/N=C/c1ccco1)c1cc(-c2ccccc2)n[nH]1 — higher, 0.423
- O=C(c1oc2ccccc2c1CSCc1ccccc1)N1CCN(c2ncccn2)CC1 — higher, 1.89
- CCOC(=O)C(NC(=O)OC(C)C)(Nc1nccs1)C(F)(F)F (centres undefined) — higher, 0.497
- Nc1nonc1-n1nnc(C(=O)N/N=C/c2cc(Br)ccc2O)c1CSC1=NCCS1 — higher, 0.661
- Cn1c(Cn2cnc([N+](=O)[O-])n2)nnc1SCC(=O)Nc1ccccc1 — lower, -1.24
- N=c1oc2ccccc2cc1-c1nc(-c2ccc(Cl)cc2)cs1 — lower, -0.248
- CC(=O)c1ccc(NC(=O)CCSCCC(=O)Nc2ccc(C(C)=O)cc2)cc1 — lower, -0.481
- COc1ccc(C(=O)NCC(=O)N2CCC(C)CC2)cc1OC — lower, 0.00724
- O=C(NCCCn1ccnc1)c1cn(-c2ccccc2)nc1-c1ccccc1 — lower, -0.532
- Cc1cnc(C(=O)OCC(=O)NCc2ccccc2)cn1 — lower, -0.845
- COc1cc2c(C(=O)N3CCN(C)CC3)c(C)n(-c3ccccc3)c2cc1Br — lower, -0.333
- N#CC1=C2SCN(c3ccc(F)cc3)CN2C(=O)CC1c1cccc(F)c1 (centres undefined) — lower, -0.281
- CCc1ccc(Nc2nnc(SCC(=O)Nc3sccc3C(N)=O)s2)cc1 — lower, -0.208
- CCOC(=O)c1cc(Br)c(=O)n2ccccc12 — lower, -0.334
- CN(CC(=O)N1CCc2ccccc21)S(=O)(=O)c1ccc(Cl)cc1 — lower, -0.00318
- CCc1cccc(NC(=O)Cn2c(-c3ccccc3)cc(C(C)=O)c2C)c1 — lower, -0.0569
- CC1(C)CC2CC(C)(CN2C(=O)COC(=O)CNC(=O)c2ccc(Cl)c(Cl)c2)C1 (centres undefined) — lower, -0.326
- COc1cc(/C=C/c2noc(-c3ccccc3O)n2)cc(OC)c1OC — higher, 0.236
- COc1cc(S(=O)(=O)N2CCN(C)CC2)ccc1Cl — lower, -0.0928
- CCOc1ccccc1OCC(=O)Nc1ccc(N2CCCCC2)cc1 — lower, 0.13
- COC(=O)[C@H](C)NC(=O)NC1CCCc2ccccc21 (some centres undefined) — higher, 0.715
- CCCc1ccc(-c2cc(NC(=O)CSc3n[nH]c(N)n3)n(-c3ccccc3)n2)cc1 — lower, -0.0405
- O=C(CSc1nc2ccccc2c(=O)[nH]1)c1cccs1 — lower, -1.18
- CCOC(=O)c1oc2ccc(S(=O)(=O)Nc3ccc4c(c3)n(C)c(=O)n4C)cc2c1C — lower, -1.19
- Cc1oc2ccc(OCC(N)=O)cc2c1C(=O)OC(C)C — higher, 0.262
- Cc1ccc(Cl)cc1N(Cc1ccc(C(=O)NCc2cccnc2)cc1)S(=O)(=O)c1ccccc1 — lower, -0.0346
- CC1CCCCC12NC(=O)N(CC(=O)Nc1sc3c(c1C(N)=O)CCC3)C2=O (centres undefined) — lower, 0.0207
- CC(=O)c1c(C)[nH]c(C(=O)OCC(=O)N(C)C)c1C — higher, 0.594
- O=C(c1ccccc1)N1CCOC12CCN(c1ncc(C(F)(F)F)cc1Cl)CC2 — lower, -1.17
- COc1cc(-c2n[nH]c(=S)n2-c2cc(C(F)(F)F)ccc2Cl)cc(OC)c1OC — higher, 0.352
- O=C(O)CCC(=O)Nc1ccccc1C(=O)Nc1ccccc1 — lower, -0.0377
- COCCn1c(C)cc(C(=O)CSc2n[nH]c(N)n2)c1C — higher, 0.27
- Cc1ccc(C(C(=O)NC2CCCC2)N(Cc2cccs2)C(=O)CNC(=O)c2cccs2)o1 (centres undefined) — lower, -0.479
- CC1=CSC2=NC(=O)/C(=C\c3cccn3-c3ccc([N+](=O)[O-])cc3)C(=N)N12 — lower, 0.0319
- COc1ccc(Cl)cc1NC(=O)CCn1cnc2ccccc2c1=O — higher, 0.216
- C=CCNC(=O)Nc1ccc(OCC)cc1 — higher, 0.217
- CCCNC(=S)Nc1ccc(Nc2ccccc2)cc1 — lower, -0.261
- O=C(Cn1c(=O)n(-c2ccccc2)c(=O)c2oc3ccccc3c21)Nc1ccccc1 — lower, -0.388
- CCOC(=O)CC(C#N)c1cn(C)c2ccccc12 (centres undefined) — lower, -0.146
- CC(=O)O[C@H]1CSC[C@H]1NC(=O)c1ccccc1 — higher, 0.95
- COc1ccc(C2C(C(C)=O)=C(O)C(=O)N2c2nccs2)cc1 (centres undefined) — lower, -0.323
- Cc1ccc(-c2cc(C(=O)Nc3cnn(C(C)C)c3)no2)cc1 — higher, 0.74
- O=C(c1nc2ncccn2n1)N1CCN(c2ccccc2)CC1 — lower, -0.0837
- COc1ccc(C(=O)n2nc(C)cc2Nc2ccccc2)cc1 — higher, 0.319
- Cn1c(-c2ccc(C=O)s2)nc2ccccc21 — lower, -0.462
- O=C(Oc1ccc2ccc(=O)oc2c1)C1CCCCC1 — lower, -0.195
- Cc1ccnc2nc(C(=O)N3CCN(c4ccc(F)cc4)CC3)nn12 — lower, -0.0086
- CN(C)c1ccc(CC(=O)c2nc3ccccc3s2)cc1 — lower, -0.0472
- COc1ccc(C(=O)Nc2cc(OC)cc(OC)c2)cc1 — lower, -0.246
- Cc1nc(-c2cccc(S(=O)(=O)N3CCC(C)CC3)c2)cs1 — lower, -0.145
- COc1ccc(C(=O)c2oc3ccccc3c2NC(C)=O)cc1 — lower, -0.128
- C/C(=N\N=C1\NC(=O)CC(C(=O)O)S1)c1cccs1 (centres undefined) — lower, -0.264
- CCOC(=O)c1c(C)n(C)c2ccc(OCC(O)CN(CC)CC)cc12 (centres undefined) — higher, 0.554
- CCC(C)n1[nH]c(=O)c2c(C)cc(C)nc21 (centres undefined) — higher, 0.609
- C=CCSc1nnc(-c2sc(-c3ccccc3)nc2C)n1C — lower, -0.24
- COc1ccc(S(=O)(=O)N2CCC(C(=O)NCC3CCCO3)CC2)cc1 (centres undefined) — higher, 0.371
- Cc1ccc(NC(=O)COC(=O)Cn2nc(C)c([N+](=O)[O-])c2C)c([N+](=O)[O-])c1 — lower, -0.0642
- CCOC(=O)CSc1nc2c(c(=O)[nH]c(=O)n2C)n1CCCc1ccccc1 — lower, -0.157

With C=C(C)CNC(=S)N/N=C1\CCCCc2ccccc21 the z-score was active: 3.15.
